Data taken from PubChem BioAssay (NCI).
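Where inhibition never reached the appropriate level, the endpoint shown equals the highest concentration tested. Otherwise, values were interpolated linearly from a five-concentration, 48-hour dose response in 96-well plates. GI50 marks 50% less growth. At the TGI there is no net growth.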

Test system: NCI-H322M lung
Experiment: NCI anticancer screen, dose series, 48 h

## CCOc1ccc(/C=N/NC(=O)Cn2nc(Cc3ccc([N+](=O)[O-])cc3)c3onc(C)c3c2=O)cc1
  GI50: > 100 µM
  TGI: > 100 µM
